# Publication PMC4336329 (PLoS ONE, 2015)
# Hit rate of the full screen: of about 310,000 compounds, about 2,200 (0.71%) showed an effect of 50% or more. Effects have a minus sign here. The list shows a part of the results.
# Target: human ether-à-go-go-related gene (hERG) potassium channel (human, UniProt Q12809)
# Experiment: primary screen, population patch clamp on CHO cells stably expressing hERG
# Chain of human ether-à-go-go-related gene (hERG) potassium channel (Q12809 whole entry, looked up): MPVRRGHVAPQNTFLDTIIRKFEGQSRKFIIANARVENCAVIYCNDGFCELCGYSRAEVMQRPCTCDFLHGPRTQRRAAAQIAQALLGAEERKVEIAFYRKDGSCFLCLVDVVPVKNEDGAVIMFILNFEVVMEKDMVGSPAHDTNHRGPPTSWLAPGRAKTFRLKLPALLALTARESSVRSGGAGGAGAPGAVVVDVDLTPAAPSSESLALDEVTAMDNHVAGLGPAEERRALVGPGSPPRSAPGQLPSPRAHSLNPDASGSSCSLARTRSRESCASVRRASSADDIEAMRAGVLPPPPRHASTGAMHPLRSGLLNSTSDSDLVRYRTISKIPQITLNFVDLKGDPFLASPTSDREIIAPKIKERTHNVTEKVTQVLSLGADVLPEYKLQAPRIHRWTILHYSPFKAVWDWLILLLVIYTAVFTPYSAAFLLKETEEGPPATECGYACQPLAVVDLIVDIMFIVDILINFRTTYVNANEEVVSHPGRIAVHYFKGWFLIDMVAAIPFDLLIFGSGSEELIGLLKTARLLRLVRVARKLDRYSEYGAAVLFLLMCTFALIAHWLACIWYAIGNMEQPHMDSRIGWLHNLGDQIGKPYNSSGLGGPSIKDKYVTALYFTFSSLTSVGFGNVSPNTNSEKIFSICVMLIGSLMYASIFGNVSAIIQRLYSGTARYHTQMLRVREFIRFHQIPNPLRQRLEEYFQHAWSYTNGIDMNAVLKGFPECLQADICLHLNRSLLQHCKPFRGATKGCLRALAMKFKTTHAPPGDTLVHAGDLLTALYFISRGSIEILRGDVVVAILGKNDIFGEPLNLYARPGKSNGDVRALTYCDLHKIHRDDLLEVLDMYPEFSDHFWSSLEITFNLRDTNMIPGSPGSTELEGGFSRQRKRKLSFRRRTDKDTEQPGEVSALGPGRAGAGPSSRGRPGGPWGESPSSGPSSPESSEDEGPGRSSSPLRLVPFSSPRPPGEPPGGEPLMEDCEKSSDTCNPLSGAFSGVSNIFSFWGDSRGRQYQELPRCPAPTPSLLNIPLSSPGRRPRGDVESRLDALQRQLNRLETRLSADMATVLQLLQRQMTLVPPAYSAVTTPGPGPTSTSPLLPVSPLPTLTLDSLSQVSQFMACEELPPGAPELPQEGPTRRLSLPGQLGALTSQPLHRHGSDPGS
row,SMILES,"hERG current change (%, negative = inhibition) at 1uM"
1,O=C(O)c1cccc(NC(=O)c2cccc(NC(=O)C3CCCO3)c2)c1 (stereo not shown),9.91%
2,O=C(/C=C/Nc1ccccc1O)c1ccco1,8.53%
3,O=C(CSc1nc2ccccc2n1S(=O)(=O)c1ccccc1)N1CCCC1,4.02%
4,Cc1cccc(N2CCN(C(=O)COc3cc(=O)n(C)c4ccccc34)CC2)c1C,-23.4%
5,CCOC(=O)c1ccc(N(CC(=O)NC2CCCCC2)C(=O)CNC(=O)c2ccco2)cc1,0.982%
6,CN(C(=O)CSc1nnc(N)s1)C1CCCCC1,12.7%
7,COc1ccc(OC)c(NC(=O)CCN2CCN(C)CC2)c1.Cl,-3.28%
8,O=C(c1ccccc1)N1CCC(O)(c2ccc3c(c2)OCO3)CC1,7.78%
9,N#Cc1c(Nc2cccc(F)c2)sc2c(O)cc(=O)[nH]c12,11.4%
10,Cc1ccc(NC(=O)c2cc(C)nn2-c2ccccc2)cc1,3.19%
11,COCCn1c(C)cc(/C=C2/NC(=O)N(c3cccc(Cl)c3)C2=O)c1C,10.6%
12,CCCCN1C(=O)/C(=C2/Sc3ccc(OC)cc3N2CC)SC1=S,11.2%
13,CC1CN(C(=S)NC(=O)c2ccccc2)CC(C)O1 (stereo not shown),19%
14,CC(O)CNCc1ccccc1C(F)(F)F.Cl (stereo not shown),7.24%
15,CC(C)Sc1nc2c(cnn2-c2ccc(Cl)cc2)c(=O)[nH]1,9.95%
16,O=C(CC1C(=O)NCCN1C/C=C/c1ccccc1)NCCc1cccnc1 (stereo not shown),9.43%
17,COc1ccc(S(=O)(=O)N(CC(=O)N2CCOCC2)c2ccc(F)cc2)cc1OC,-3.03%
18,COc1ccc(NC(=O)CN2C(=O)c3ccccc3Sc3ccc(C(=O)N4CCOCC4)cc32)c(OC)c1,1.43%
19,O=C(CSc1nc2ccccc2s1)Nc1cc(C(=O)O)cc(C(=O)O)c1,14.7%
20,CC(=O)Nc1ccc(S(=O)(=O)N2CCc3ccccc3C2)cc1,18.6%

row,SMILES,"hERG current change (%, negative = inhibition) at 1uM"
1,CCC1CCCCN1C(=O)CSc1nc(C)cc(C)n1 (stereo not shown),-6.99%
2,COc1ccccc1CN1CCN(C(=O)COc2ccccc2)CC1,8.51%
3,CCc1nnc(NC(=O)Cn2ccc(C(F)(F)F)n2)s1,11.2%
4,S=C(NCC1CCCO1)Nc1ccccc1 (stereo not shown),16.4%
5,c1cc2c(cc1CN1CCOCC1)OCO2,17.6%
6,COc1ccc(NC(=O)COC(=O)Cc2ccc(Br)cc2)cc1,2.78%
7,O=C(N/N=C/c1coc2ccccc2c1=O)c1ccncc1,19.5%
8,COc1ccc(-c2cnn3c(N)c(S(=O)(=O)C(C)(C)C)cnc23)cc1,8.28%
9,CCCn1c(SCC(=O)NC2CCCCC2C)n[nH]c1=O (stereo not shown),12%
10,O=C(CCl)NCc1cc(-c2ccc(Cl)cc2)no1,4.56%
11,CCOC(=O)N1CCN(C2CC(=O)N(c3ccc(Oc4ccccc4)cc3)C2=O)CC1 (stereo not shown),-1.74%
12,C/C=C(\C)C(=O)NCCN1C2=NC[C@@H](Cc3ccccc3)N2C[C@H]1Cc1ccc(O)cc1,13.4%
13,Cc1ccc(S(=O)(=O)N2CCC(C(=O)N3CCN(Cc4ccccc4)CC3)CC2)cc1,4.88%
14,CC(=O)C(=Cc1ccc(C(=O)O)cc1)C(C)=O,10.8%
15,CCCCOc1ccc(NC(=O)[C@@H]2CCCN2C(=O)C2CCN(S(=O)(=O)c3ccc(C)cc3)CC2)cc1,1.97%
16,COC(=O)[C@H](Cc1ccccc1)NC(=O)NCCC1=CCCCC1,-0.221%
17,CC1CCN(C(=O)COc2ccc3ccccc3c2Br)CC1,9.56%
18,Cc1ccc(OCCn2nc3ccccc3n2)c(C)c1,-0.51%
19,Nc1cc(=O)[nH]c(SCC(=O)NNC(=O)Cc2ccccc2)n1,19.4%
20,CCCCOc1ccc2c(c1)/C(=C(\C(Cl)=C(Cl)Cl)[N+](=O)[O-])N2,12.9%

row,SMILES,"hERG current change (%, negative = inhibition) at 1uM"
1,CCOc1ccc(NC(=O)CNC(=O)c2cccs2)cc1,14.8%
2,CCCCC1CCC(C(=O)Nc2ccccc2N2CCOCC2)CC1 (stereo not shown),5.53%
3,Cc1noc(C)c1CSCC(=O)Nc1cc(S(=O)(=O)N2CCCCC2)ccc1OC(C)C,13.8%
4,CCN1CCN(CCCNC(=O)c2ccc(NC(=O)C3=CSCCO3)cc2)CC1,20.2%
5,COC(=O)c1cccc(NC(=O)CSc2nc(O)c(-c3ccccc3)c(=O)[nH]2)c1,8.64%
6,COc1cccc(NC(=O)CC2(CC(=O)O)CCCC2)c1,-6.98%
7,COc1ccc(C(=O)c2c(C(F)(F)F)oc3c2C(=O)c2ccccc2C3=O)cc1OC,8.78%
8,N#Cc1cnn2ccc(-c3cc(N4CCOCC4)ccc3[N+](=O)[O-])nc12,8.76%
9,O=C(Cc1coc2cc3c(cc12)CCC3)OCC(=O)N1CCCC1=O,0.839%
10,CCOC(=O)[C@H]1[C@H]2COc3ccc(Cl)cc3[C@@H]2N2C(=O)c3cc(OC)ccc3NC(=O)[C@@]12C,1.72%
11,Cc1ccc(Oc2ncccc2C(=O)NC2CCSC2=O)cc1 (stereo not shown),9.34%
12,CCOc1ccc(-c2csc(C3COc4ccccc4O3)n2)cc1 (stereo not shown),15%
13,COc1cccc(-n2c(=O)[nH]cc(C(=O)Nc3ccc4c(c3)OCCO4)c2=O)c1,9.27%
14,O=C1NC2(CCCCC2)N(C(=O)c2ccccc2)C2=C1CCCC2,15.3%
15,COC(=O)c1ccc(C(=O)NN)cc1,8.93%
16,CCc1nnc(NS(=O)(=O)c2ccc(N3C(=O)c4ccc(C(=O)O)cc4C3=O)cc2)s1,9.17%
17,CCN1C(=O)N[C@@H](CCc2ccccc2)C(C(=O)OC)=C1C,17.6%
18,Cc1nn(C)c(C)c1NC(=O)c1cc2nc(-c3ccco3)cc(C(F)(F)F)n2n1,13.7%
